According to PubChem BioAssay AID360 (National Center for Advancing Translational Sciences (NCATS), 2006):
Hit rate of the full screen: of about 48,000 compounds, about 550 (1.1%) were called active. The inconclusive results got no clear call from the source; some entries with a clear call stand among them for comparison. No stated cut-off is given here; in the data, active means potency below about 15 µM; inconclusive means mostly about 16 µM to 33 µM; inactive means weaker than that. Where the call is inconclusive, the potency comes from a doubtful curve fit.

Molecular target: Lysosomal acid glucosylceramidase (Homo sapiens) (UniProt P04062)
Assay: Glucocerebrosidase;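 further: the screen sought inhibitors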
Conditions: purified enzyme, resorufin glucoside fluorescence (screen aimed at inhibitors), 20 min
From the text: NCGC Assay Overview: Beta-glucocerebrosidase catalyzes the hydrolysis of beta-glucocerebroside to glucose and ceramide. The inherited deficiency of beta-glucocerebrosidase results in Gaucher disease, which is characterized by a wide variety of symptoms including hepatosplenomegaly, anemia, thrombocytopenia, bony lesions and bone marrow infiltration with characteristic storage cells, known as Gaucher cells. There are also forms of the disorder affecting the central nervous system. Patients with the same genotypes can manifest with diverse clinical presentations and it is believed that improper folding and trafficking of beta-glucocerbrosidase may contribute to the phenotypes observed. Low molecular weight molecules, acting as chaperones, may potentially restore trafficking of misfolded beta-glucocerebrosidase from the endoplasmic reticulum to the lysosomes, thereby enhancing functional lysosomal beta-glucocerebrosidase activity. Using normal beta-glucocerebrosidase, an assay was developed to screen for small molecule inhibitors that could potentially act as molecular chaperones on the mutant forms [developed with NIH investigator Dr. Ellen Sidransky's laboratory]. Two pro-fluorescent substrates were chosen for two screens against a small molecule library. One beta-glucocerebrosidase assay used Resorufin beta-D-Glucopyranoside (Marker Gene Technology Inc.), generating a red fluorescent product. The second assay used Fluorescein di-beta-D-Glucopyranoside, generating a blue fluorescent product. […] The IC50 values of Conduritol B Epoxide, a known glucocerebrosidase inhibitor, were determined to be 87.5 uM and 117 uM, respectively. The use of two difference pro-fluorescent substrates in the screens helped to eliminate false positives. All compounds were screened in a titration series resulting in AC50s (e.g., IC50s or EC50s).
NCGC Assay Protocol Summary: Both enzyme and substrate were diluted in buffer composed of 50mM citric acid/KH2PO4, 10mM sodium taurocholate and 0.01% tween-20 at pH 5.9. The final concentration of the enzyme was 0.2 nM in both assays. The compound library was titrated in 7 to 15 concentrations for the primary screens with a final concentration ranging from 0.6 nM to 50 uM. This particular assay protocol is for the "red" substrate, and it was performed in 1536-well plate format as follows: Red fluorescence substrate assay: 2 uL enzyme 23 nL compound 1 uL substrate (final concentration of 30 uM) Incubate at room temperature (RT) for 20 minutes Read the plate in Viewlux plate reader (Ex=548(7) and Em=600(10)).
Potency means the concentration at half of the fitted maximal effect.

Sequence of UniProt P04062 (P04062 whole entry, looked up): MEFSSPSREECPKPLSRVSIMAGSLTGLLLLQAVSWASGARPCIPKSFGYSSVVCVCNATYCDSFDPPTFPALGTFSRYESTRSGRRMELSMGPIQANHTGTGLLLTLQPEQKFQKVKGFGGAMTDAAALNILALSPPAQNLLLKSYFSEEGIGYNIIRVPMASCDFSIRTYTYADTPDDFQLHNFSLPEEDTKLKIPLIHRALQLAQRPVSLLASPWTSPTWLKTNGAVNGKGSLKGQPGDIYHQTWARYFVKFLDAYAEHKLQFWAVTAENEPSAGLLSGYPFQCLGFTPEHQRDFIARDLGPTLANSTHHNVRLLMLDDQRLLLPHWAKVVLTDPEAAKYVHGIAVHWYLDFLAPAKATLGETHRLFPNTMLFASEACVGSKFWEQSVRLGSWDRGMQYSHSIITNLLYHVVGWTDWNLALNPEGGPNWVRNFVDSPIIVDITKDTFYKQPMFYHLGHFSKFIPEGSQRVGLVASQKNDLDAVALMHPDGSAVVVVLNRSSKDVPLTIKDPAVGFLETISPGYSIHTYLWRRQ

Potency, inconclusive:
CCn1c(SCc2c(F)cccc2Cl)nnc1-c1ccco1 24.2 µM [decreasing]
Cc1ccc(S(=O)(=O)N2CCCC(C(=O)NC3=NCCS3)C2)cc1 (configuration not stated) 20.3 µM [decreasing]
CCCC(c1nnnn1CC1CCCO1)N1CCN(c2cc(Cl)ccc2C)CC1 (configuration not stated) 31.9 µM [decreasing]
COc1ccc(-c2cn3cccnc3n2)cc1NC(=O)c1ccc(Br)o1 20.2 µM [decreasing]
O=c1cc(CSc2ccc(Cl)cc2)nc(N2CCOCC2)[nH]1 26.9 µM [decreasing]
CC1=C(C(=O)OC2CCCCC2)C(c2ccc(C)o2)C2=C(CC(C)(C)CC2=O)N1 (configuration not stated) 26.7 µM [decreasing]
Cc1cc(C)nc(NC(=NCc2ccc3c(c2)OCO3)NC(=O)Nc2ccccc2)n1 24.9 µM [increasing]
CN1CCN(C2=C(Cl)C(=O)N(C3CCCCC3)C2=O)CC1 23.2 µM [decreasing]
CN(C)Cc1ccc(O)c(CCc2ccccc2)n1 21.7 µM [decreasing]

Potency, inactive:
COc1ccc(/C(O)=C2\C(=O)C(=O)N(CCCN(C)C)C2c2ccccc2F)cc1Cl (configuration not stated) > 76.9 µM
CN(C)c1nc(Oc2ccc(=O)n(-c3ccccc3)n2)nc(N2CCOCC2)n1 > 76.9 µM
O=C(NCCCc1ccccc1)c1ccc(Br)o1 > 76.9 µM
CSc1oc(-c2ccccc2)nc1S(=O)(=O)c1ccc(F)cc1 > 76.9 µM
CC(C)NC(=O)c1cc2cc(Br)ccc2oc1=O > 76.9 µM
COc1cc(OC)cc(C(=O)N2c3ccc(F)cc3CCC2C)c1 (configuration not stated) > 76.9 µM
Cc1nn(C)c(C)c1CN(C)C(=O)c1cc2nc(-c3ccco3)cc(C(F)(F)F)n2n1 > 76.9 µM

Potency, active:
O=C(CN1CCC(c2nc3ccccc3[nH]2)CC1)Nc1ccc2c(c1)OCO2 13.7 µM
COc1ccc(NC(=O)c2ccc(NS(=O)(=O)c3c(C)noc3C)cc2)cc1OC 0.295 µM
Oc1ccc(-c2nc3ccccn3c2NCc2ccc3c(c2)OCO3)cc1 0.886 µM
CC(C)CCNC(=O)C(c1ccco1)N(C(=O)Cn1nnc2ccccc21)c1ccc2c(c1)OCO2 (configuration not stated) 8.22 µM
COCc1nnc(NC(=O)c2ccc(NC(=O)C(C)C)cc2)s1 0.538 µM
COCCCn1c2nc3ccccc3nc2c2c(=O)n(Cc3ccc(Cl)cc3)cnc21 7.33 µM
